# Laboratory results: publication PMC10668032
# This is one part of the list. At the low end of the ranking the order means little.
# Biological target: SIX1-Q177R homeodomain (UniProt Q15475)
# Experiment: universal protein binding microarray
# Conditions: Universal all-10-mer PBM (8x60K, AMADID 030236), 300 nM GST-tagged protein, Alexa Fluor 488 anti-GST; buffer, salt, pH and temperature not stated; high values mean tight binding; most listed sequences are background and not binding sites; double strand, one strand shown
row,Sequence,binding signal [E-score]
1,TCTTCGCA,-0.101
2,CGACCGTC,-0.163
3,AAGGACGC,-0.059
4,CACGGTGA,0.221
5,AACTGAAT,-0.0846
6,CGTATACG,0.153
7,CCTCGTCC,-0.0782
8,CTATCGGC,-0.164
9,GTAATCCA,-0.00487
10,GAGTCAAC,0.079
11,GACCCTCA,-0.078
12,AGACGCCT,-0.0615
13,CTGATCAG,-0.196
14,GCTATACC,0.169
15,AGCGCCCA,-0.172
16,ACATATTG,-0.124
17,ATTGATAA,-0.199
18,AGGACCTC,-0.04
19,CTATGTCC,-0.149
20,ATAGCTTC,-0.273
21,CACTCGAC,0.211
22,CTCAAGGA,0.0283
23,AAGTCGTG,0.169
24,AACCGCCA,-0.0701
25,GAAGGATA,0.0385

row,Sequence,binding signal [E-score]
1,GCGGAGCA,-0.0819
2,GAAGAAAC,-0.187
3,CTTCCATC,-0.0574
4,GCCTGACA,0.141
5,GGGTTGAA,0.0124
6,CCCCCCAG,0.162
7,AATATTTC,-0.199
8,GAAGATTA,-0.0973
9,CACGAATC,0.0544
10,GGCACGGA,0.0118
11,ATTTTTTC,-0.184
12,CGGGAAGA,0.0766
13,CTTAATGC,-0.216
14,GGAAGGCC,-0.271
15,CAGCCTCC,-0.337
16,ACCGGGCC,-0.0757
17,ATTCCTTG,-0.203
18,CCTAGGCG,-0.123
19,TCCCAAGA,-0.22
20,GCCTCTTA,-0.147
21,ACCCCTGC,0.235
22,GTCTCACA,0.0951
23,GAGTTACA,0.168
24,AAGACAGT,0.0689
25,CATTTGCG,-0.153

row,Sequence,binding signal [E-score]
1,GTGCGAAC,-0.00604
2,ATACTAGC,0.00859
3,AAGATCGG,-0.118
4,ATGTCACG,0.00899
5,GCGCGTCC,-0.0923
6,CTAATGCA,0.000465
7,ACGCTCTC,-0.0979
8,AGGTTCAG,0.03
9,CGCAACAC,0.366
10,AACCAGCT,0.0377
11,ACCATGAG,0.0359
12,CCGATATA,0.0806
13,TACCGCCA,-0.0258
14,ACGATACG,0.0271
15,CGTACCTC,-0.165
16,AGATTCCT,-0.138
17,ATGGAGAG,-0.131
18,GGCTGCCC,-0.236
19,TGAGCAAA,-0.22
20,GCCGCGGA,-0.0545
21,CTGGCCGA,-0.19
22,GTTATGGA,-0.0956
23,CGTGCAAA,0.062
24,ACATGGCT,-0.158
25,CGAAGGAA,-0.0842

row,Sequence,binding signal [E-score]
1,AAGTTGAG,-0.153
2,CACCTCAG,0.26
3,CCAGGTAA,0.043
4,CGAGAACC,-0.0476
5,CGCCCAGA,-0.137
6,AATTATGG,-0.136
7,GATCAACA,0.206
8,ATCCTCAT,0.0337
9,AACTCGCA,-0.17
10,ATGTCTCG,-0.0871
11,CACTGTAA,0.137
12,CATAGTTC,-0.258
13,AGACACAA,0.105
14,AGTCGGCC,-0.136
15,GCTGAGGA,-0.158
16,GGCCAGTA,-0.255
17,GGCTTTAA,-0.271
18,ACACCTTC,0.46
19,AAGGCAAC,-0.0857
20,AGAGATCA,-0.147
21,GGAACCTA,0.046
22,GCCCTGCC,-0.0386
23,CTTAGAAC,-0.0268
24,CTCGGGCA,0.0961
25,TAACTGGA,-0.171

row,Sequence,binding signal [E-score]
1,GAATACGA,-0.0332
2,GCCAGTTA,-0.0445
3,AGTCCGAG,-0.143
4,CACAAACA,0.0223
5,TCGCACGA,0.107
6,ACTGGAAT,-0.0476
7,ACTGCGCG,-0.021
8,CATGGTCA,-0.133
9,CTTCCGTA,-0.199
10,AATGTACT,-0.0697
11,CGGCTCCA,0.159
12,CGGCTGGA,-0.0793
13,AGACATTC,-0.0502
14,GCCACGAC,0.0193
15,ACACGATA,0.375
16,AGTTCGAT,-0.122
17,GAATGCGA,-0.26
18,AAGATTGG,-0.199
19,ATATATGA,-0.0427
20,GAAGACTC,-0.028
21,AATCAGTG,0.0927
22,CAGCAGGC,-0.119
23,GACTTGCC,-0.2
24,ACGAGCTA,-0.13
25,AACGGTCG,-0.0731

row,Sequence,binding signal [E-score]
1,GATTATTA,-0.0231
2,CGTGGAGA,-0.237
3,CGTGCCAG,-0.0596
4,ATGATTTG,-0.00908
5,ACATTAAT,-0.159
6,AGACGAGA,-0.116
7,ACGTCAGC,-0.0368
8,AGCTAGTA,-0.187
9,AAGCGCCA,-0.0351
10,CCACGGGC,-0.0636
11,TATCAGGA,-0.024
12,GCCCTGCA,0.0992
13,ACCCGTCC,0.0968
14,ACTTAACC,0.0139
15,AGAACCGG,-0.0382
16,AGCGCTAT,-0.263
17,ATCCGTCC,-0.128
18,CGCCAGTA,-0.219
19,CATGGCGG,-0.192
20,ACAGCAGC,-0.251
21,AGGGGCTG,-0.115
22,GTCCCCAC,0.0192
23,AAACCGAC,-0.0141
24,AAGCAGAG,-0.204
25,CAACCCTC,-0.0241

row,Sequence,binding signal [E-score]
1,AGGCATCG,-0.249
2,AAGCACTC,0.0646
3,AATCGAAT,-0.179
4,CTCGAGTA,0.164
5,AAACGCTC,-0.0275
6,ATCGACTG,-0.11
7,ATGGACAG,-0.0632
8,TGTTAACA,0.389
9,TCCGGGAA,-0.0882
10,CTGCTCCC,-0.0545
11,ACTTTAAA,-0.2
12,AGTCGACT,0.0787
13,CCGCACCC,0.192
14,AACAACGA,-0.022
15,ACGCTTTC,-0.138
16,GAGCCTTA,-0.254
17,TTCGCAAA,0.0247
18,GCCGCCCA,-0.103
19,CCCGTCTA,0.144
20,GATCCGGA,0.162
21,AATACGGT,-0.0437
22,GTTGGCCA,-0.0152
23,AATTGACA,0.125
24,GACGCGGC,-0.0177
25,TACAACGA,-0.136

row,Sequence,binding signal [E-score]
1,ACGCATGA,-0.121
2,CCTGCGAC,-0.0334
3,GAAGGGTC,-0.0245
4,TCGTGAAA,-0.14
5,AATTGCTG,-0.196
6,CCGCGCAA,0.143
7,AGTGCGAC,-0.121
8,ATGGGGTG,0.342
9,CCGTACAG,-0.157
10,AGCGATTA,-0.0578
11,CGGTATAC,0.165
12,CTTGCTAC,-0.0389
13,AGTGCACG,0.0532
14,CCACAGCC,-0.0112
15,CATTTGAG,-0.0665
16,AGGTTTAG,-0.0327
17,AGGGCCTA,0.0161
18,CCTTCAAG,-0.0806
19,AATCGCGC,-0.0968
20,AAGCCGCT,-0.341
21,AAATATCA,-0.04
22,CCCCGGTA,0.284
23,CCCCGTCG,0.161
24,ACTTTTTG,-0.0857
25,CACTTCCC,0.125

row,Sequence,binding signal [E-score]
1,CGTGAAAA,-0.257
2,AGTCTTAC,-0.00104
3,ACATTTTC,-0.149
4,ACACTCCA,0.373
5,CCCATACA,0.192
6,CCGAGACA,0.274
7,GCGGGACC,-0.118
8,GATCTGAC,-0.0697
9,CTTCCAAG,-0.0791
10,CACCAGCC,0.239
11,ATATTTCA,3.5e-05
12,CCTCTCGA,0.17
13,AGCGAAAC,-0.216
14,TACCACGA,0.0102
15,CGGGCCGA,-0.0991
16,CAACGGAC,-0.0589
17,CTAGACCC,0.184
18,GTGGTTCA,-0.112
19,CGCCAGCC,-0.0818
20,CGTCGCCC,0.0483
21,GACACTAA,0.369
22,CTACCATA,-0.0068
23,TCGCCAGA,-0.169
24,AAGCGGGG,0.128
25,GGAATTAC,-0.0938

row,Sequence,binding signal [E-score]
1,GAGAAGCA,-0.0815
2,CGAAGTCA,-0.143
3,CAGTACTA,-0.0974
4,GAGATGGA,-0.0177
5,CGGCCAGA,-0.0354
6,CTCGTTCA,0.0563
7,AATGCAGA,-0.0643
8,CTAAGTTC,-0.293
9,GGCCATAA,-0.0742
10,AGACCCCC,0.214
11,AGCAAAGC,-0.253
12,AAAAGTCA,-0.156
13,CTTGCCAC,-0.0915
14,ACCCGTGG,0.118
15,CGGCATAA,-0.0281
16,AGCAGACC,-0.281
17,CAACGATC,-0.12
18,CATGGGCG,-0.0212
19,ACATCCGC,0.0624
20,GGCACGAC,-0.101
21,ACGTAACA,0.199
22,CCGGACGG,-0.102
23,AGGTAGGC,-0.081
24,CTATTTAA,-0.117
25,CATTTTTC,-0.128

row,Sequence,binding signal [E-score]
1,CTGATGCA,-0.191
2,ACAAACCT,-0.0653
3,CTATAGTA,0.00653
4,AAGTGCCG,-0.246
5,GACTAAGA,-0.0724
6,AGGAAGTG,0.168
7,GCTGACAC,0.444
8,CGTATGTA,-0.0841
9,CTGGAGCC,-0.141
10,ATCACACA,0.125
11,GATTAAAC,-0.0654
12,GATCCGCC,0.0707
13,CACTTTCC,0.0583
14,ACATCCCC,0.0676
15,CCAAGAAC,-0.0512
16,AAGGCTAA,-0.282
17,TTGGTAAA,-0.0218
18,ACCATGGA,-0.047
19,TAAACATA,-0.169
20,AGCCTCAA,-0.227
21,ACCTTCGT,-0.0665
22,AGTTCTAA,-0.1
23,CGTGATGC,-0.172
24,AAGCGTGA,0.0773
25,CACTAATC,0.172

row,Sequence,binding signal [E-score]
1,GCAGTTAA,0.0691
2,AAGCACGA,0.0371
3,CCGAAGTA,0.113
4,CCCGTGGA,0.111
5,CTTGCACA,-0.0686
6,GGGAACCA,0.0536
7,AATTCTTC,-0.203
8,CTCGGCCA,-0.247
9,CCGACGCC,0.154
10,TCGTTGCA,-0.0834
11,CGCGTGCC,0.0481
12,TGACGTAA,-0.088
13,ACTTTCAC,0.0611
14,GGTTGCAA,-0.061
15,GCGCAACA,0.109
16,ACACTAAC,0.356
17,CCAAAGTC,-0.134
18,CACGCTGC,0.293
19,AAGCTCAC,-0.109
20,CCACGTTA,-0.0871
21,GAGTCTAC,-0.124
22,GTGGGAGA,-0.0934
23,AATAGAGC,-0.107
24,ACGCGGTC,-0.068
25,AGAGATAC,0.0877

row,Sequence,binding signal [E-score]
1,CTGTTTAA,-0.147
2,CACCCATA,0.301
3,CTGATTTC,-0.198
4,ACAGTGTC,0.387
5,AGACCCTC,0.0755
6,GGACTGAA,-0.0933
7,AGGACACT,0.38
8,ACCGTGGC,-0.0436
9,CAATGCTC,-0.133
10,CGCACACA,0.16
11,TACTCTCA,0.00681
12,GTAACCCA,0.0242
13,GAATTACA,0.22
14,ATGGGATC,0.185
15,ATGCTCAC,-0.225
16,CTGATCTA,-0.13
17,CCAACCGC,0.0326
18,CGTAAGTA,-0.16
19,AATGCATT,-0.167
20,ATGGTCGC,-0.156
21,CGCAGTAA,-0.161
22,ACTTGCAC,0.175
23,CGTTAGCC,-0.112
24,CCCTTCAC,0.0641
25,GCCCTAAC,-0.185

row,Sequence,binding signal [E-score]
1,ACTGCTCG,-0.0194
2,CGATGCTC,-0.213
3,CCACAGCA,0.0334
4,ATGGGAAT,0.0359
5,ATGTTATG,-0.152
6,AGTTGGAC,-0.173
7,AATCACGT,-0.171
8,CATCCCGC,-0.0678
9,GGTTGCCA,-0.169
10,GCCGGGTA,0.197
11,CCAGTAAG,-0.218
12,GAGTCAAA,0.0432
13,CGGCAGCA,-0.174
14,CATTGCTC,-0.174
15,ATACGTCA,-0.164
16,CACGGCAG,0.0729
17,CCTAGTCG,-0.0884
18,ACGTCTTA,-0.259
19,GGAAATCA,-0.246
